{
  "source": "the supplement of paper PMC8728848",
  "binders": {"B1": {"name": "Si Bti9 1b-V5-his (Solanum lycopersicum) (protein)", "chain": "MQCNRGCDLALASFYVWRGSNLTLISEMFSTSIADIVSYNNRDNIPNQDSVIAGTRINIPFRCDCLNDGEVLGHAFPYRVKSGDTYDLVARNYSDLTTAQWMMKFNSYPENNIPNTVNLSVVVNCSCGNSDVSKDFGLFVTYPVRAEDNLTSVASAANVSEDIIRRYNPAAVSILDIGQGIIYIPGRDRNGNFPPLPTSTDGLSGGAKKGGRADPAFLYKVVINSKLEGKPIPNPLLGLDSTRTGHHHHHH"}},
  "assay_in_all_cases": "glycan array binding signal (z-score within array); higher = stronger binding",
  "settings_in_all_cases": "glycan notation: IUPAC condensed, linker removed",
  "key": {"Gal3S(b1-4)Glc": {"molecular_target": "Gal3S(b1-4)Glc", "procedure,_shortened": "(§1)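 From the Consortium for Functional Glycomics database, 3228 arrays were curated, keeping only those whose protein sequence was available. Binding is given as a within-array Z-score averaged across arrays sharing a protein sequence and across linkers. Negative Z-scores can be read as non-binding.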"}, "Gal3S(b1-4)Glc6S": {"molecular_target": "Gal3S(b1-4)Glc6S", "procedure,_shortened": "as §1"}, "Gal3S(b1-4)GlcNAc": {"molecular_target": "Gal3S(b1-4)GlcNAc", "procedure,_shortened": "as §1"}, "[1]": {"molecular_target": "Gal3S(b1-4)[Fuc(a1-3)]Glc6S", "procedure,_shortened": "as §1"}, "[2]": {"molecular_target": "Gal3S(b1-4)[Fuc(a1-3)]GlcNAc", "procedure,_shortened": "as §1"}, "[3]": {"molecular_target": "Gal3S(b1-4)[Fuc(a1-3)]GlcNAc6S", "procedure,_shortened": "as §1"}, "Gal3S4S(b1-4)GlcNAc": {"molecular_target": "Gal3S4S(b1-4)GlcNAc", "procedure,_shortened": "as §1"}, "Gal3S6S(b1-4)GlcNAc": {"molecular_target": "Gal3S6S(b1-4)GlcNAc", "procedure,_shortened": "as §1"}, "Gal3S6S(b1-4)GlcNAc6S": {"molecular_target": "Gal3S6S(b1-4)GlcNAc6S", "procedure,_shortened": "as §1"}, "Gal4S(b1-4)GlcNAc": {"molecular_target": "Gal4S(b1-4)GlcNAc", "procedure,_shortened": "as §1"}, "Gal4S6S(b1-4)GlcNAc": {"molecular_target": "Gal4S6S(b1-4)GlcNAc", "procedure,_shortened": "as §1"}, "Gal6P(b1-4)GlcNAc": {"molecular_target": "Gal6P(b1-4)GlcNAc", "procedure,_shortened": "as §1"}, "Gal6S(b1-3)GlcNAc": {"molecular_target": "Gal6S(b1-3)GlcNAc", "procedure,_shortened": "as §1"}, "Gal6S(b1-3)GlcNAc6S": {"molecular_target": "Gal6S(b1-3)GlcNAc6S", "procedure,_shortened": "as §1"}, "Gal6S(b1-4)Glc": {"molecular_target": "Gal6S(b1-4)Glc", "procedure,_shortened": "as §1"}, "Gal6S(b1-4)Glc6S": {"molecular_target": "Gal6S(b1-4)Glc6S", "procedure,_shortened": "as §1"}, "Gal6S(b1-4)GlcNAc": {"molecular_target": "Gal6S(b1-4)GlcNAc", "procedure,_shortened": "as §1"}, "Gal6S(b1-4)GlcNAc6S": {"molecular_target": "Gal6S(b1-4)GlcNAc6S", "procedure,_shortened": "as §1"}, "GalNAc(a1-3)Gal": {"molecular_target": "GalNAc(a1-3)Gal", "procedure,_shortened": "as §1"}, "GalNAc(a1-3)GalNAc": {"molecular_target": "GalNAc(a1-3)GalNAc", "procedure,_shortened": "as §1"}, "[4]": {"molecular_target": "GalNAc(a1-3)GalNAc(b1-3)Gal(a1-4)Gal(b1-4)Glc", "procedure,_shortened": "as §1"}, "[5]": {"molecular_target": "GalNAc(a1-3)GalNAc(b1-3)Gal(a1-4)Gal(b1-4)GlcNAc", "procedure,_shortened": "as §1"}, "GalNAc(b1-3)Gal": {"molecular_target": "GalNAc(b1-3)Gal", "procedure,_shortened": "as §1"}, "[6]": {"molecular_target": "GalNAc(b1-3)Gal(a1-4)Gal(b1-4)GlcNAc", "procedure,_shortened": "as §1"}, "[7]": {"molecular_target": "GalNAc(b1-3)Gal(a1-4)Gal(b1-4)GlcNAc(b1-3)Gal(b1-4)Glc", "procedure,_shortened": "as §1"}, "[8]": {"molecular_target": "GalNAc(b1-3)Gal(a1-6)Gal(b1-4)Glc", "procedure,_shortened": "as §1"}, "GalNAc(b1-3)GalNAc": {"molecular_target": "GalNAc(b1-3)GalNAc", "procedure,_shortened": "as §1"}, "GalNAc(b1-3)GlcNAc": {"molecular_target": "GalNAc(b1-3)GlcNAc", "procedure,_shortened": "as §1"}, "GalNAc(b1-4)Gal(b1-4)Glc": {"molecular_target": "GalNAc(b1-4)Gal(b1-4)Glc", "procedure,_shortened": "as §1"}, "GalNAc(b1-4)GlcNAc": {"molecular_target": "GalNAc(b1-4)GlcNAc", "procedure,_shortened": "as §1"}, "[9]": {"molecular_target": "GalNAc(b1-4)GlcNAc(b1-2)Man", "procedure,_shortened": "as §1"}, "[10]": {"molecular_target": "GalNAc(b1-4)GlcNAc(b1-2)Man(a1-3)[GalNAc(b1-4)GlcNAc(b1-2)Man(a1-6)]Man(b1-4)GlcNAc(b1-4)GlcNAc", "procedure,_shortened": "as §1"}, "[11]": {"molecular_target": "GalNAc(b1-4)GlcNAc(b1-3)GalNAc(b1-4)GlcNAc", "procedure,_shortened": "as §1"}, "GalNAc(b1-4)GlcNAc6S": {"molecular_target": "GalNAc(b1-4)GlcNAc6S", "procedure,_shortened": "as §1"}, "GalNAc(b1-6)GalNAc": {"molecular_target": "GalNAc(b1-6)GalNAc", "procedure,_shortened": "as §1"}, "GalNAc3S(b1-4)GlcNAc": {"molecular_target": "GalNAc3S(b1-4)GlcNAc", "procedure,_shortened": "as §1"}, "GalNAc3S(b1-4)GlcNAc3S": {"molecular_target": "GalNAc3S(b1-4)GlcNAc3S", "procedure,_shortened": "as §1"}},
  "note": "The other results are listed elsewhere or left out.",
  "data": [
    {"binder": "B1", "values": [
      {"measurement": "glycan array binding signal (z-score)", "setting": "Gal3S(b1-4)Glc", "result": 1.61},
      {"measurement": "glycan array binding signal (z-score)", "setting": "Gal3S(b1-4)Glc6S", "result": 0.754},
      {"measurement": "glycan array binding signal (z-score)", "setting": "Gal3S(b1-4)GlcNAc", "result": 0.09},
      {"measurement": "glycan array binding signal (z-score)", "setting": "[1]", "result": 0.443},
      {"measurement": "glycan array binding signal (z-score)", "setting": "[2]", "result": -0.345},
      {"measurement": "glycan array binding signal (z-score)", "setting": "[3]", "result": 1.04},
      {"measurement": "glycan array binding signal (z-score)", "setting": "Gal3S4S(b1-4)GlcNAc", "result": -0.283},
      {"measurement": "glycan array binding signal (z-score)", "setting": "Gal3S6S(b1-4)GlcNAc", "result": 0.103},
      {"measurement": "glycan array binding signal (z-score)", "setting": "Gal3S6S(b1-4)GlcNAc6S", "result": 0.163},
      {"measurement": "glycan array binding signal (z-score)", "setting": "Gal4S(b1-4)GlcNAc", "result": -0.307},
      {"measurement": "glycan array binding signal (z-score)", "setting": "Gal4S6S(b1-4)GlcNAc", "result": -0.191},
      {"measurement": "glycan array binding signal (z-score)", "setting": "Gal6P(b1-4)GlcNAc", "result": -0.317},
      {"measurement": "glycan array binding signal (z-score)", "setting": "Gal6S(b1-3)GlcNAc", "result": -0.294},
      {"measurement": "glycan array binding signal (z-score)", "setting": "Gal6S(b1-3)GlcNAc6S", "result": -0.167},
      {"measurement": "glycan array binding signal (z-score)", "setting": "Gal6S(b1-4)Glc", "result": -0.149},
      {"measurement": "glycan array binding signal (z-score)", "setting": "Gal6S(b1-4)Glc6S", "result": 0.068},
      {"measurement": "glycan array binding signal (z-score)", "setting": "Gal6S(b1-4)GlcNAc", "result": -0.119},
      {"measurement": "glycan array binding signal (z-score)", "setting": "Gal6S(b1-4)GlcNAc6S", "result": -0.235},
      {"measurement": "glycan array binding signal (z-score)", "setting": "GalNAc(a1-3)Gal", "result": -0.318},
      {"measurement": "glycan array binding signal (z-score)", "setting": "GalNAc(a1-3)GalNAc", "result": -0.039},
      {"measurement": "glycan array binding signal (z-score)", "setting": "[4]", "result": -0.423},
      {"measurement": "glycan array binding signal (z-score)", "setting": "[5]", "result": -0.346},
      {"measurement": "glycan array binding signal (z-score)", "setting": "GalNAc(b1-3)Gal", "result": 0},
      {"measurement": "glycan array binding signal (z-score)", "setting": "[6]", "result": -0.423},
      {"measurement": "glycan array binding signal (z-score)", "setting": "[7]", "result": -0.027},
      {"measurement": "glycan array binding signal (z-score)", "setting": "[8]", "result": -0.348},
      {"measurement": "glycan array binding signal (z-score)", "setting": "GalNAc(b1-3)GalNAc", "result": -0.28},
      {"measurement": "glycan array binding signal (z-score)", "setting": "GalNAc(b1-3)GlcNAc", "result": -0.361},
      {"measurement": "glycan array binding signal (z-score)", "setting": "GalNAc(b1-4)Gal(b1-4)Glc", "result": 0.254},
      {"measurement": "glycan array binding signal (z-score)", "setting": "GalNAc(b1-4)GlcNAc", "result": -0.018},
      {"measurement": "glycan array binding signal (z-score)", "setting": "[9]", "result": -0.416},
      {"measurement": "glycan array binding signal (z-score)", "setting": "[10]", "result": 0.095},
      {"measurement": "glycan array binding signal (z-score)", "setting": "[11]", "result": 0.051},
      {"measurement": "glycan array binding signal (z-score)", "setting": "GalNAc(b1-4)GlcNAc6S", "result": 0.056},
      {"measurement": "glycan array binding signal (z-score)", "setting": "GalNAc(b1-6)GalNAc", "result": -0.204},
      {"measurement": "glycan array binding signal (z-score)", "setting": "GalNAc3S(b1-4)GlcNAc", "result": -0.394},
      {"measurement": "glycan array binding signal (z-score)", "setting": "GalNAc3S(b1-4)GlcNAc3S", "result": -0.324}
    ]}
  ]
}
